This note sets out measurements from the supplement of paper PMC4604168 (melanoma cell lines).

This is one part of the list. Single values are uncertain, as repeats are few or missing.

Among the test systems are 501Mel; A101D; A2058; A375.
Assay in all cases: cell count relative to DMSO control; melanoma cells; higher = more viable cells
Common to all, as to details: library dose: standard library concentration; 72 h
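Note: cells treated in 1,536-well plates, then fixed and DAPI-stained, with nuclei counted from automated high-throughput microscope images.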

On to `CC[C@]1(O)C[C@H]2CN(CCc3c([nH]c4ccccc34)[C@@](C(=O)OC)(c3cc4c(cc3OC)N(C=O)[C@H]3[C@@](O)(C(=O)OC)[C@H](OC(C)=O)[C@]5(CC)C=CCN6CC[C@]43[C@@H]65)C2)C1` [vincristine] + CCCCCCCCCCCC1=C(O)C(=O)C=C(O)C1=O [Embelin] (first compound 0.0005 µM, partner dose 6 µM), for which the cell count in the test on 501Mel worked out at 28.9%; in the test on A101D it was 33.1%; in the test on A2058, 5.95%; in the test with A375, 97.3%.
The like results for `CC[C@]1(O)C[C@H]2CN(CCc3c([nH]c4ccccc34)[C@@](C(=O)OC)(c3cc4c(cc3OC)N(C=O)[C@H]3[C@@](O)(C(=O)OC)[C@H](OC(C)=O)[C@]5(CC)C=CCN6CC[C@]43[C@@H]65)C2)C1` [vincristine] + COc1cc(N2CCC(N3CCN(C)CC3)CC2)ccc1Nc1ncc(Cl)c(Nc2ccccc2S(=O)(=O)C(C)C)n1 [NVP-TAE684] (first compound 0.0005 µM, partner dose 0.4 µM) were, in that order, 86.3%, 81.2%, 62.2% and 88.1%.
For the compound `Cc1cc(Nc2cc(N3CCN(C)CC3)nc(Sc3ccc(NC(=O)C4CC4)cc3)n2)n[nH]1` [Tozasertib] + O=c1cc(-c2cccc3c2Sc2ccccc2S3)oc(N2CCOCC2)c1 [KU55933] (first compound 0.03 µM, partner dose 5 µM), the cell count in the test on 501Mel came to 84.7%; in the test on A101D, 76.8%; in the test on A2058 it was 87.6%; with A375, 101%.
The matching figures for `Cc1cc(Nc2cc(N3CCN(C)CC3)nc(Sc3ccc(NC(=O)C4CC4)cc3)n2)n[nH]1` [Tozasertib] + COc1ccc(COc2ccc(Cc3cnc(N)nc3N)cc2OC)cc1 [GW2580] (first compound 0.03 µM, partner dose 5 µM): 83.6%, 107%, 79.1% and 94%.
The like results for `CC[C@]1(O)C[C@H]2CN(CCc3c([nH]c4ccccc34)[C@@](C(=O)OC)(c3cc4c(cc3OC)N(C=O)[C@H]3[C@@](O)(C(=O)OC)[C@H](OC(C)=O)[C@]5(CC)C=CCN6CC[C@]43[C@@H]65)C2)C1` [vincristine] + Cn1cc(/C=C2\C(=O)Nc3cccnc32)c2ccccc21 [GW441756] (first compound 0.0005 µM, partner dose 2 µM) were, in that order, 67.2%, 51.6%, 27.7% and 121%.
For `CC[C@]1(O)C[C@H]2CN(CCc3c([nH]c4ccccc34)[C@@](C(=O)OC)(c3cc4c(cc3OC)N(C=O)[C@H]3[C@@](O)(C(=O)OC)[C@H](OC(C)=O)[C@]5(CC)C=CCN6CC[C@]43[C@@H]65)C2)C1` [vincristine] + Nc1cccc2c1CN(C1CCC(=O)NC1=O)C2=O [lenalidomide] (first compound 0.0005 µM, partner dose 5 µM), the values for the cell count with A101D, with A2058 and with A375 were 59.2%, 54.7% and 99.6%, respectively.
Turning to `Cc1cc(Nc2cc(N3CCN(C)CC3)nc(Sc3ccc(NC(=O)C4CC4)cc3)n2)n[nH]1` [Tozasertib] + O=C(O)C(=O)Nc1sc2c(c1C(=O)O)CCNC2 [TCS401] (first compound 0.03 µM, partner dose 8.33333 µM), the cell count in the test with 501Mel worked out at 90.3%; with A101D, 94.1%; in the test on A2058, 86.4%; in the test with A375 it was 187%.
In the case of `N#CC[C@H](C1CCCC1)n1cc(-c2ncnc3[nH]ccc23)cn1` [ruxolitinib] + Oc1nc(-c2ccc(C(F)(F)F)cc2)nc2c1CSCC2 [XAV939] (first compound 5 µM, partner dose 10 µM), the cell count in the test on 501Mel is 87.4%; in the test on A101D, 98.7%; with A2058 it was 63.4%; in the test with A375, 115%.
Turning to `N#CC[C@H](C1CCCC1)n1cc(-c2ncnc3[nH]ccc23)cn1` [ruxolitinib] + O=C(CCCCCCC(=O)Nc1ccccc1)NO [vorinostat] (first compound 5 µM, partner dose 0.4 µM), the cell count in the test on A101D was found to be 104%; in the test on A2058 it was 83.3%; with A375, 135%.
`CC[C@]1(O)C[C@H]2CN(CCc3c([nH]c4ccccc34)[C@@](C(=O)OC)(c3cc4c(cc3OC)N(C=O)[C@H]3[C@@](O)(C(=O)OC)[C@H](OC(C)=O)[C@]5(CC)C=CCN6CC[C@]43[C@@H]65)C2)C1` [vincristine] + Oc1cc(-c2nc(-c3ccccc3)[nH]c2-c2ccncc2)ccc1Cl [L779450] (first compound 0.0005 µM, partner dose 1 µM): the cell count was 70.7% with 501Mel, 52.7% in the test on A101D, 7.91% in the test with A2058 and 85.6% with A375.
Regarding `Cc1cc(Nc2cc(N3CCN(C)CC3)nc(Sc3ccc(NC(=O)C4CC4)cc3)n2)n[nH]1` [Tozasertib] + C=C(c1ccc(C(=O)O)cc1)c1cc2c(cc1C)C(C)(C)CCC2(C)C [Bexarotene] (first compound 0.03 µM, partner dose 10 µM), the cell count was 90.5% with A101D, 98.7% with A2058 and 90.7% with A375.
